Measurements published in publication PMC4336329 (PLoS ONE, 2015).
In all, about 310,000 compounds went through this assay and about 2,200 (0.71%) showed an effect of 50% or more. The effect is printed as a negative number. The list shows a part of the results.

Target: human ether-à-go-go-related gene (hERG) potassium channel (human, UniProt Q12809)
Test: primary screen, population patch clamp on CHO cells stably expressing hERG

Sequence of human ether-à-go-go-related gene (hERG) potassium channel (Q12809 whole entry, looked up): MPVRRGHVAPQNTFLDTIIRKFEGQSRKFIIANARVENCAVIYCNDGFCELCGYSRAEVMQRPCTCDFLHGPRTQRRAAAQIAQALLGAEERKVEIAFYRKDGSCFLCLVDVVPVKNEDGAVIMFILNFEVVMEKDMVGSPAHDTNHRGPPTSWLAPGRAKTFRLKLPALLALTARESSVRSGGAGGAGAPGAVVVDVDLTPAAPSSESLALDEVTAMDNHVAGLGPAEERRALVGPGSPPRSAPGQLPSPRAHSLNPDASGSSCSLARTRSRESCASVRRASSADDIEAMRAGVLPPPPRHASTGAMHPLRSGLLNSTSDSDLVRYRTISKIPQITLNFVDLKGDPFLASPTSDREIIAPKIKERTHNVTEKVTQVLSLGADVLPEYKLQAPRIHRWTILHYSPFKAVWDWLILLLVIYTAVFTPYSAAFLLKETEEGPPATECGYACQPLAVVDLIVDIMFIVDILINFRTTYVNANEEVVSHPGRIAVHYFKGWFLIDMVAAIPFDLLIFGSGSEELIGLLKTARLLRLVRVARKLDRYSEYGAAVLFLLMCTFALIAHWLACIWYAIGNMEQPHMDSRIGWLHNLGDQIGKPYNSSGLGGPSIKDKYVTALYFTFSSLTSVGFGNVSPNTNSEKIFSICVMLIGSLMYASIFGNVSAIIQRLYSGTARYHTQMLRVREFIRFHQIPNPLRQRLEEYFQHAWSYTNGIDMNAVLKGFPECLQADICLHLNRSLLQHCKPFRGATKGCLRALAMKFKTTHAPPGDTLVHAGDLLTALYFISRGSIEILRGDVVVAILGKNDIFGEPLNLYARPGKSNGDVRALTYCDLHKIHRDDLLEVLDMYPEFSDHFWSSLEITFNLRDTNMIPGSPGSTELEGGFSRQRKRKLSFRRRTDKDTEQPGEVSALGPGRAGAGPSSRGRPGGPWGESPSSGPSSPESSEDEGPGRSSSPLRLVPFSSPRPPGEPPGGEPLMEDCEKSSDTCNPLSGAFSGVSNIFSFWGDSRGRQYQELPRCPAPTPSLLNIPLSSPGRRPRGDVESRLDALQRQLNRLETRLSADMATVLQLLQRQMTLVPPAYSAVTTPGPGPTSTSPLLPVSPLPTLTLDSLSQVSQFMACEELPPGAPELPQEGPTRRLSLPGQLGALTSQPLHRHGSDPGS

SMILES | hERG current change (%, negative = inhibition) at 1uM [%]
[O-]/C(=C(\C(=S)Nc1cccc2ccccc12)[n+]1ccccc1)c1ccc2c(c1)OCCO2 | -17.6
NC(=O)COC(=O)c1cccc(S(=O)(=O)N2CCCc3ccccc32)c1 | -1.75
Cc1cccc(N=C2NC(=O)/C(=C/c3cccn3C)S2)c1C | 4.75
CC(=O)c1cccc(N(CC(=O)NC2CCCCC2)C(=O)CNC(=O)c2cccs2)c1 | 20.7
NC(=O)CC(NC(=O)c1ccc(Br)cc1)c1ccc(NC2CCCCCC2)c([N+](=O)[O-])c1 (stereo not shown) | 19.7
Cc1cccc(-c2ncc(CN3CCC(CO)(CCCc4ccccc4)CC3)cn2)c1 | -10.6
O=C(COC(=O)C1CC(O)CN1S(=O)(=O)c1ccccc1[N+](=O)[O-])c1ccc[nH]1 (stereo not shown) | 10.8
O=c1c(-c2ccccc2)c(O)nc2ccccn12 | 5.16
O=C(NCCCN1CCN(c2cccc(Cl)c2)CC1)C1(S(=O)(=O)c2ccc(Cl)cc2)CC1 | -29.3
NC(=O)c1c(-c2ccccc2)oc2ccc(O)cc12 | 0.84
O=C(N/N=C/c1cccs1)c1cccs1 | 15.7
COc1cc2c(cc1NC(=O)COc1ccc3ccccc3c1)oc1ccccc12 | 5.56
CC(C)c1cc(N=NC(N)=O)cc(C(C)C)c1O | 6.77
O=C(c1ccccc1)n1ccn(-c2ccccc2)c1=S | -10.3
CC1CCc2cc(F)ccc2N1C(=O)CSc1nnc(-c2cccs2)n1C (stereo not shown) | 0.707
Cc1cc(C)nc(NS(=O)(=O)c2ccc(N3C(=O)c4ccccc4C3=O)cc2)n1 | -1.19
N/C(=N\OC(=O)C1CCCCC1)c1ccccn1 | 14.3
NC(=O)COC(=O)CC(c1ccccc1)c1ccccc1 | 8.9
Cc1c([N+](=O)[O-])nnn1-c1cc(Cl)cc(Cl)c1 | 8.12
Cn1ccc(C(=O)Nc2sc3c(c2C#N)CCC3)n1 | 19
Cc1ccc(S(=O)(=O)N(C)CC(=O)OCC(=O)NC(c2ccccc2)c2ccccc2)cc1 | 11.8
C/C(=N\N1C(=O)c2ccccc2NC1c1ccccc1)c1ccccc1O (stereo not shown) | 1.5

SMILES | hERG current change (%, negative = inhibition) at 1uM [%]
CC(C)c1ccc(/C=C(/C#N)c2nnc(NC(=O)c3ccccc3)s2)cc1 | 10.8
NS(=O)(=O)c1ccc(CCNC(=O)COC(=O)Cc2ccc([N+](=O)[O-])cc2)cc1 | -8.53
CCCN(CC#CCOc1ccc(OC)cc1)CCC.O=C(O)C(=O)O | 1.21
Cn1ccnc1C(=O)c1ccc(NN)c([N+](=O)[O-])c1 | 7.44
O=C(CC1CCCC1)Nc1nnc(C2CC2)s1 | 11.5
COC(=O)[C@H](Cc1ccccc1)NC(=O)N1CCC(C)CC1 | 8.01
COC(=O)c1sccc1NC(=O)c1ccc(C)s1 | 12.8
CC(C)[C@H](NC(N)=O)C(=O)Nc1cccc([N+](=O)[O-])c1 | 15.2
O=C(O)c1cccc(NS(=O)(=O)c2ccc(C3CCCCC3)cc2)c1 | 11.7
O=C(CS(=O)(=O)c1ccccc1)Nc1ccc(S(=O)(=O)Nc2ccccn2)cc1 | 1.96
O=C1NC[C@@H](Cc2ccc(O)cc2)N(CCc2cccc(F)c2)C1=O | 15.3
CC1CCN(c2cc(N(C)CCO)c([N+](=O)[O-])c3nonc23)CC1 | 10.2
COc1cccc(NC(=O)Cn2c(=O)oc3ccccc32)c1 | 10.9
C=CCOC(=O)C1=C(C)NC(SCC(=O)OCC)=C(C#N)C1c1ccc(C)cc1 (stereo not shown) | 16.7
COC(=O)c1c(NC(=O)Cc2ccccc2)sc2c1CC(C)(C)NC2(C)C | 5.93
OCC1(CCc2ccccc2)CCN(Cc2ccccc2Cl)CC1 | -54.6
Cc1ccc(NC(=O)CN(C)C(=O)COC(=O)CNS(=O)(=O)c2ccc(F)c(F)c2F)cc1 | 12.5
Cc1cc(C)cc(Oc2coc3cc(O)ccc3c2=O)c1 | 7.9
C/C(CC(=O)Nc1ccc(OCc2ccccc2)cc1)=N\NC(=O)C(=O)Nc1cccc(C)c1 | 5.47
O=C1CCc2cc(S(=O)(=O)NCCC(=O)N3CCN(c4cccc(Cl)c4)CC3)ccc2N1 | -17.5
C=CCn1c(SCc2ccc(Cl)c(Cl)c2)nnc1C(CO)NC(=O)c1ccc(OC)cc1 (stereo not shown) | 4.01
